Test results: PubChem BioAssay AID504466 (National Center for Advancing Translational Sciences (NCATS), 2011)
The whole screen tested about 330,000 compounds, of which about 4,200 (1.3%) were called active. Inconclusive results, whose numbers are uncertain, are shown with a selection of clear calls. Calls come from the whole dose curve; as a rule, active = well fitted activation curve with a large enough effect; inconclusive = small, poorly fitted or top-dose-only effect; inactive = no such curve, though single readings can be large or run the other way. A potency beside an inconclusive call is a rough fit, not a confirmed value.

Assay: qHTS screen for small molecules that induce genotoxicity in human embryonic kidney (HEK293T) cells expressing luciferase-tagged ELG1; note: nearly all actives have a fitted effect of over 60% in size
Settings: HEK293T ELG1-luciferase reporter, luminescence, 16 h; series mostly up to 46 µM
Method in brief: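 Genotoxic stress is detected as increased luminescence from luciferase-tagged ELG1 in HEK293T cells, measured with ONE-Glo after a 16 hr treatment at 37 °C.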
Potency is the fitted concentration of half-maximal effect; tags give direction and shape of the fitted curve.

Question: For `O=S1(=O)N=C(Nc2nc3c(s2)CCCC3)c2ccccc21`, which Potency is on record?
Answer: inconclusive: 8.2 µM [activator, partial curve]

Question: For `CC(=O)Nc1cccc(C(=O)/C=C/c2ccc(N(C)C)cc2)c1`, which Potency is on record?
Answer: inconclusive: 32.6 µM [activator, partial curve, poor fit]

Question: Which Potency does the source give for `Cc1ccc(C(=O)O/N=C(\N)c2nonc2N)cc1` here?
Answer: inconclusive: 23.1 µM [activator, single point]

Question: With `Cc1nc(NC(=O)c2ccco2)sc1-c1csc(Nc2ccc(Cl)cc2)n1` as the molecule, how does the Potency read?
Answer: inactive

Question: Which Potency does the source give for `Cc1c(Cl)cccc1N=Cc1ccc([N+](=O)[O-])s1` here?
Answer: inconclusive: 32.6 µM [activator, partial curve, poor fit]

Question: With `O=C(NCCSc1ccccc1)c1cncc(Br)c1` as the molecule, how does the Potency read?
Answer: active: 14.6 µM

Question: Which Potency does the source give for `Cc1ccsc1C(=O)Nc1ccc(OCc2ccccc2)cc1` here?
Answer: inconclusive: 1.46 µM [activator, full curve]

Question: Which Potency does the source give for `Clc1c(Cl)c(Cl)c2n[nH]nc2c1Cl` here?
Answer: inactive

Question: With `COc1ccc(/C=N/Nc2nc(Nc3ccccc3)nc(N3CCCC3)n2)cc1[N+](=O)[O-]` as the molecule, how does the Potency read?
Answer: inconclusive: 29.1 µM [activator, single point]

Question: With `COc1cc(/C=C2\SC(N)=NC2=O)ccc1OCC(=O)Nc1ccc(C)cc1` as the molecule, how does the Potency read?
Answer: inconclusive: 8.2 µM [activator, partial curve, poor fit]

Question: Which Potency does the source give for `COc1ccc(C(=O)Cn2c(C)nc([N+](=O)[O-])c2Br)cc1` here?
Answer: inconclusive: 32.6 µM [activator, partial curve, poor fit]

Question: Which Potency does the source give for `FC(F)Oc1ccccc1/C=N/Nc1nc2ccccc2o1` here?
Answer: inactive

Question: Which Potency does the source give for `O=S(=O)(Nc1ccc(N2CCCCC2)cc1)c1cccc2cccnc12` here?
Answer: inconclusive: 20.6 µM [activator, partial curve]

Question: Which Potency does the source give for `O=C(NC1CC1)c1ccc(-c2ccccc2)cc1` here?
Answer: inconclusive: 0.164 µM [activator, full curve, poor fit]

Question: For `Cc1ccc(C(=O)COC(=O)c2cccc(NC(=O)c3ccc([N+](=O)[O-])cc3[N+](=O)[O-])c2)cc1`, which Potency is on record?
Answer: inconclusive: 3.66 µM [activator, partial curve, poor fit]

Question: With `Cc1cc(O)c(/C=N/Nc2ccccc2Cl)c(=O)o1` as the molecule, how does the Potency read?
Answer: inconclusive: 10.3 µM [activator, partial curve, poor fit]

Question: Which Potency does the source give for `Cc1nc2c(ccc3nc(NC(=O)c4ccc5c(c4)OCCO5)sc32)s1` here?
Answer: inconclusive: 1.46 µM [activator, partial curve, poor fit]

Question: For `CC(=O)Nc1ccc2cc3ccc(NC(C)=O)cc3nc2c1`, which Potency is on record?
Answer: inconclusive: 20.6 µM [activator, single point]

Question: With `COc1ccc(/C=C/C(=O)O)cc1S(=O)(=O)NCc1cccnc1` as the molecule, how does the Potency read?
Answer: inactive

Question: Which Potency does the source give for `CCN(CC)C(=N)/C(C#N)=N/Nc1ccc(C)cc1` here?
Answer: inconclusive: 18.3 µM [activator, partial curve]

Question: Which Potency does the source give for `N#CCCN(C(=O)COC(=O)C1CCN(S(=O)(=O)c2cccs2)CC1)c1ccccc1` here?
Answer: inactive

Question: For `COc1ccc2cc(CCNC(=O)C(C)C)c(=O)[nH]c2c1`, which Potency is on record?
Answer: inactive

Question: With `Cc1ccccc1Nc1nc2ccccc2s1` as the molecule, how does the Potency read?
Answer: inconclusive: 18.4 µM [activator, partial curve]

Question: With `Cc1cccc(C(=O)Nc2ccc3c(c2)nc(C)n3C)c1` as the molecule, how does the Potency read?
Answer: inconclusive: 1.64 µM [activator, full curve]

Question: For `Cc1cc(N)n2ncc(-c3ccc(F)cc3)c2n1`, which Potency is on record?
Answer: active: 16.4 µM

Question: For `Cn1ccnc1SCC(=O)c1cc2ccccc2o1`, which Potency is on record?
Answer: inconclusive: 20 µM [activator, partial curve, poor fit]

Question: For `N#Cc1c(NC(=O)c2cccnc2)sc2c1CCC2`, which Potency is on record?
Answer: inconclusive: 16.4 µM [activator, single point]

Question: With `O=[N+]([O-])c1cccc(/C=N/N2CCN(Cc3ccccc3)CC2)c1` as the molecule, how does the Potency read?
Answer: inconclusive: 23.1 µM [activator, single point]

Question: With `COCc1cc(=O)n2[nH]c(-c3ccc(C)cc3)cc2n1` as the molecule, how does the Potency read?
Answer: active: 14.6 µM

Question: With `COc1ccc2c(CC(=O)Nc3ncc(C)s3)coc2c1` as the molecule, how does the Potency read?
Answer: inconclusive: 3.98 µM [activator, full curve]

Question: With `CCOc1ccc(C(=O)NC(C(=O)NCC(c2cccs2)N(C)C)C(C)C)cc1` (centres undefined) as the molecule, how does the Potency read?
Answer: inactive

Question: With `CC(=O)Nc1cccc(OCCCNC(=O)c2cccc3ccccc23)c1` as the molecule, how does the Potency read?
Answer: inactive

Question: For `CCc1nnc(NC(=O)CSc2nc(-c3ccccc3)cc(-c3ccc(OC)cc3)c2C#N)s1`, which Potency is on record?
Answer: inconclusive: 16.4 µM [activator, partial curve]

Question: Which Potency does the source give for `Cc1cccc(-c2cc(N)n(-c3ccccc3)n2)c1` here?
Answer: inconclusive: 2.06 µM [activator, full curve, poor fit]

Question: With `COc1cccc(NC(=O)CNC(=O)c2cccs2)c1` as the molecule, how does the Potency read?
Answer: inconclusive: 14.6 µM [activator, partial curve, poor fit]

Question: For `CNc1c([N+](=O)[O-])cnn1-c1ccccc1F`, which Potency is on record?
Answer: inconclusive: 18.3 µM [activator, partial curve, poor fit]

Question: Which Potency does the source give for `CCOc1ncccc1C(=O)Nc1cccc(S(=O)(=O)N2CCCCC2)c1` here?
Answer: inactive

Question: With `Cc1cc(/C=C2\SC(=S)N(C)C2=O)c(C)n1-c1cccc(O)c1` as the molecule, how does the Potency read?
Answer: inconclusive: 4.11 µM [activator, single point]

Question: For `Cc1ccc(Nc2nc(N)nc(CC#N)n2)cc1`, which Potency is on record?
Answer: active: 18.4 µM

Question: With `Cc1ccsc1/C=N/N=C1\C(=O)Nc2ccccc21` as the molecule, how does the Potency read?
Answer: inactive

Question: With `Cc1ccc(Nc2nc(-c3ccc(F)cc3)cs2)nc1` as the molecule, how does the Potency read?
Answer: inconclusive: 2.91 µM [activator, partial curve]

Question: With `Cc1cc(C)nc(Nc2n[nH]c(-c3ccc(N)cc3)n2)n1` as the molecule, how does the Potency read?
Answer: active: 7.31 µM

Question: With `CC(=O)Nc1cccc(-c2nnc(-c3ccccc3)o2)c1` as the molecule, how does the Potency read?
Answer: active: 8.2 µM

Question: Which Potency does the source give for `COc1ccc(/C(N)=N/OC(=O)CSc2ccccc2)cc1OC` here?
Answer: active: 18.4 µM

Question: Which Potency does the source give for `Cc1ccc([N+](=O)[O-])cc1N/C=C/C(=O)c1ccco1` here?
Answer: inactive

Question: Which Potency does the source give for `CC(c1ccc(F)cc1)n1c(-c2cccs2)n[nH]c1=S` (centres undefined) here?
Answer: inactive

Question: For `O=C1N(c2ccccc2)CCN1c1ccccc1`, which Potency is on record?
Answer: inconclusive: 2.31 µM [activator, full curve]

Question: With `C=CCNc1nc(Cl)nc(Nc2ccc(OC)cc2)n1` as the molecule, how does the Potency read?
Answer: inconclusive: 16.4 µM [activator, partial curve, poor fit]

Question: For `CN(C)CCOC(=O)c1ccc2[nH]c3c(c2c1)CSCC3`, which Potency is on record?
Answer: inactive

Question: Which Potency does the source give for `O=C(Nc1cccc(F)c1)c1ccc(-c2ccccc2Cl)o1` here?
Answer: inconclusive: 23.1 µM [activator, partial curve, poor fit]

Question: With `O=C(CSc1nnc(-c2cccc(Cl)c2)o1)Nc1ccc2c(c1)OCCO2` as the molecule, how does the Potency read?
Answer: active: 20.6 µM

Question: Which Potency does the source give for `COc1ccc(NC(=O)Nc2nnc(Cc3ccc(F)cc3)s2)cc1` here?
Answer: inconclusive: 23.1 µM [activator, partial curve, poor fit]

Question: With `COc1ccc(NC(=O)Nc2ccc(N(C)C)cc2)cc1` as the molecule, how does the Potency read?
Answer: inconclusive: 14.6 µM [activator, partial curve]

Question: With `O=C1c2ccccc2NC(c2ccccc2Cl)N1N=C1CCCCCC1` (centres undefined) as the molecule, how does the Potency read?
Answer: inconclusive: 16.4 µM [activator, partial curve, poor fit]

Question: With `O=C(/C=C/Nc1ccccc1F)c1cccs1` as the molecule, how does the Potency read?
Answer: inconclusive: 0.651 µM [activator, full curve]

Question: Which Potency does the source give for `CC1CCCN(CCCNC(=O)c2nn(C)c3c2CSc2ccccc2-3)C1` (centres undefined) here?
Answer: inconclusive: 23.1 µM [activator, single point]

Question: For `COc1cc(/C=C2/C(=N)N3C=CSC3=NC2=O)ccc1OCCCOc1ccccc1C`, which Potency is on record?
Answer: inconclusive: 18.4 µM [activator, partial curve, poor fit]

Question: For `CCOc1ccc(NC(=O)Cn2cncc2-c2ccc([N+](=O)[O-])cc2)cc1`, which Potency is on record?
Answer: inconclusive: 23.1 µM [activator, single point]

Question: With `CCOC(=O)C1=CCN(Cc2ccccc2)CC1` as the molecule, how does the Potency read?
Answer: inactive

Question: For `COc1ccc(OC)c(NC(=O)c2cnc3n(c2=O)CCS3)c1`, which Potency is on record?
Answer: inconclusive: 20.6 µM [activator, partial curve, poor fit]

Question: With `COc1ccc(Nc2nc(C)c(-c3ccccc3)s2)cc1` as the molecule, how does the Potency read?
Answer: inconclusive: 18.4 µM [activator, partial curve, poor fit]

Question: With `CN1CCN(C(=O)CCCOc2cc(=O)n(C)c3ccccc23)CC1` as the molecule, how does the Potency read?
Answer: inconclusive: 20.6 µM [activator, partial curve, poor fit]

Question: Which Potency does the source give for `Cc1ccccc1N=Nc1ccc(O)c2ncccc12` here?
Answer: active: 11.6 µM

Question: For `CCOC(=O)C1=C(C)NC(C)=C(C(=O)OCC)C1C(=O)OCC(=O)N1CCc2ccccc21`, which Potency is on record?
Answer: active: 18.4 µM

Question: For `CCc1nc(NC(C)(C)C)c2cnn(-c3ccccc3)c2n1`, which Potency is on record?
Answer: inconclusive: 23.1 µM [activator, single point]

Question: Which Potency does the source give for `CC(C)n1cnc2c(oc3ccccc32)c1=O` here?
Answer: inactive

Question: With `CSc1ccc(-c2sc(Nc3ccccc3)n[n+]2-c2ccccc2)cc1` as the molecule, how does the Potency read?
Answer: inactive

Question: With `CC/C(=N\NC(=O)c1cc(C2CC2)[nH]n1)c1ccccc1` as the molecule, how does the Potency read?
Answer: inconclusive: 14.6 µM [activator, partial curve]

Question: Which Potency does the source give for `CCCCC(CC)C(=O)N1CCN(C(=O)c2ccco2)CC1` (centres undefined) here?
Answer: inactive

Question: Which Potency does the source give for `CC(=O)c1cccc(OCc2cc(C(=O)N3CCSCC3)no2)c1` here?
Answer: active: 9.2 µM

Question: For `O=C(NCCOc1ccccc1Cl)c1ncn[nH]1`, which Potency is on record?
Answer: inconclusive: 20.6 µM [activator, partial curve, poor fit]

Question: For `COCCNC(=O)CSc1nc2nn(-c3ccccc3)c(=O)c-2c2n1CCCCC2`, which Potency is on record?
Answer: inactive

Question: For `Cc1cc(CC(C)C)n(-c2nc3ccccc3c(=O)n2OCC(=O)N(C)C)n1`, which Potency is on record?
Answer: inconclusive: 23.1 µM [activator, single point]

Question: For `N#C/C(=C\c1ccc([N+](=O)[O-])o1)C(=O)Nc1ccc(F)cc1`, which Potency is on record?
Answer: inconclusive: 29.1 µM [activator, partial curve, poor fit]
